Where “and” joins values, the source holds several entries; their conditions need not be identical. Equal entries are not always repeated. The whole screen tested about 420,000 compounds, of which about 64,000 (15%) were called active. Inconclusive means that the source gave no clear call. Such entries were picked first, then a sample of the others. Calls follow the shape of the dose curve; as a rule, active = well fitted inhibition curve with a large enough effect; inconclusive = small, poorly fitted or top-dose-only effect; inactive = flat fitted curve, though single readings scatter. Potencies of inconclusive entries are doubtful fits and often do not repeat. Where a structure was tested more than once in an assay, its records may differ in their call.
Experiment: qHTS for Inhibitors of human tyrosyl-DNA phosphodiesterase 1 (TDP1): qHTS in cells in absence of CPT; also: nearly all actives have a fitted effect of over 55% in size
Settings: DT40 Tdp1-/- hTDP1 cells, no CPT, ATP luminescence, 48 h; activity change, negative = growth inhibition: at 46.2 µM (top of the series)
In short: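 Readout: luminescence from CellTiter-Glo after 30 min in the dark at RT. Cells: DT40 Tdp1-/- with stable hTDP1, 400/well. Exposure: compounds alone, ≥48 hr, 37 °C.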
% is scaled to controls: 0 for no effect and ±100 for the full control effect; potency is read from the fitted curve at half-maximal effect; tags tell the direction and shape of the fitted curve.

Which “activity change, negative = growth inhibition” value does the source give for `O=C(C1COc2ccccc2O1)N1CCN(c2ccccc2Cl)CC1` (centres undefined) here?
The value was inactive: -13.3%.

Which Potency does the source give for `Cc1cc(C)c(NC(=O)CN2C(=O)C3(SCC(=O)N3c3ccc(F)cc3)c3ccccc32)c(C)c1` (centres undefined) here?
Its Potency is inconclusive: 16.4 µM [inhibitor, single point].

With `CCn1cc(C2=NC(CC(C)C)CO2)c2ccccc21` (centres undefined) as the compound, how does the Potency read?
The Potency was active: 14.6 µM.

Which Potency does the source give for `Cc1ccc(COC(=O)c2cc(S(=O)(=O)N3CCOCC3)ccc2C)cc1` here?
Its Potency is inconclusive: 16.4 µM [inhibitor, single point].

For `CCOC(=O)CCNC(=O)N1CCCC(Cc2ccccc2)(C(=O)OCC)C1` (centres undefined), which “activity change, negative = growth inhibition” value is on record?
The value was inactive: -4.83%.

With `CCOc1ccccc1NC(=S)Nc1ccc2cn[nH]c2c1` as the compound, how does the Potency read?
The Potency was inconclusive: 25.9 µM [inhibitor, single point].

Which Potency does the source give for `Cc1ccc(N2C(S)=C(C#N)C(=O)NC2c2ccco2)cc1` (centres undefined) here?
The Potency was inconclusive: 18.4 µM [inhibitor, partial curve].

For `CCOc1ccccc1N1CC(C(=O)Nc2cc(S(=O)(=O)N3CCOCC3)ccc2OC(C)C)CC1=O` (centres undefined), which activity change, negative = growth inhibition is on record?
Its activity change, negative = growth inhibition is inconclusive: -30.7% [inhibitor].

Which Potency does the source give for `CC(C)(C)S(=O)N1Cc2cc(CO)cc(-c3ccccc3)c2[C@H]1CCO` (some centres undefined) here?
Its Potency is inconclusive: 29.1 µM [inhibitor, single point].

Which Potency does the source give for `COc1ccc2[nH]cc(CCNC(=S)NCCc3ccccc3)c2c1` here?
The Potency was inconclusive: 29.1 µM [inhibitor, single point].

Which Potency does the source give for `CCN1CCN(c2nc3sc4c(c3c(=O)n2-c2ccc(OC)cc2)CCCCC4)CC1` here?
The Potency was inconclusive: 25.9 µM [inhibitor, single point].

Which “activity change, negative = growth inhibition” value does the source give for `Cc1ccc(S(=O)(=O)N(C)C)cc1NC(=O)COc1ccc(-c2nnco2)cc1` here?
The value was inactive: -13.5%.

For `CCOC(=O)C1=C(O)C(=O)N(Cc2ccccc2)C1`, which Potency is on record?
Its Potency is inconclusive: 33.5 µM [inhibitor, single point].

With `CN(Cc1ccccc1)c1ncnc(N)c1[N+](=O)[O-]` as the compound, how does the Potency read?
The Potency was inconclusive: 13 µM [inhibitor, partial curve].

Which Potency does the source give for `COC(=O)Cc1cc(=O)n(-c2nc3ccccc3s2)[nH]1` here?
The Potency was inconclusive: 23.1 µM [inhibitor, single point].

With `O=C(NCc1ccc(C(F)(F)F)cc1)C12CN(Cc3ccccc3)CC1C(c1cccc([N+](=O)[O-])c1)=NO2` (centres undefined) as the compound, how does the Potency read?
The Potency was active: 16.4 µM.

With `COc1ccc(C2c3c(n(C)c4ccccc34)C(=O)N2CC(=O)Nc2ccc(C)cc2Cl)cc1` (centres undefined) as the compound, how does the Potency read?
The Potency was inconclusive: 29.1 µM [inhibitor, single point].

With `CCCCCCn1c(=O)n2n(c1=O)C[C@]1(OC(=O)Nc3c(C)noc3C)CN(S(=O)(=O)c3ccc(C)cc3)C[C@]1(O)C2` as the compound, how does the Potency read?
The Potency was active: 20.6 µM.

With `CCOC(=O)N1CCN(C(=O)/C(=C/c2ccc(Cl)cc2)NC(=O)c2ccccc2)CC1` as the compound, how does the Potency read?
Its Potency is inconclusive: 14.6 µM [inhibitor, single point].

For `CCSc1nnc(NC(=O)CCN2C(=O)C3CCCCC3C2=O)s1` (centres undefined), which “activity change, negative = growth inhibition” value is on record?
The value was inactive: 10.8%.

For `OCCN1CCN(c2ncnc3c2ncn3[C@H]2CN(Cc3ccc4c(c3)OCO4)C[C@@H](CO)O2)CC1`, which Potency is on record?
The Potency was inconclusive: 23.1 µM [inhibitor, single point].

Which Potency does the source give for `Cc1ccc(-c2nnc3n2N=C(c2ccc(Br)cc2)CS3)cc1` here?
Its Potency is inconclusive: 18.4 µM [inhibitor, partial curve].

Which “activity change, negative = growth inhibition” value does the source give for `CC(C)(C)c1cc(NC(=O)C2CCCO2)no1` (centres undefined) here?
Its value is inactive: 3.05%.

Which Potency does the source give for `COc1ccc(C(CNC(=O)c2cccc(S(=O)(=O)Nc3ccc(C)cc3)c2)N2CCOCC2)cc1` (centres undefined) here?
The Potency was inconclusive: 18.4 µM [inhibitor, partial curve].

With `CCc1c(C)nc2ncnn2c1N1CCC(C(=O)NCc2cccc(OC)c2)CC1` as the compound, how does the Potency read?
The Potency was inconclusive: 23.1 µM [inhibitor, partial curve].

For `COc1cccc(NC(=O)Cn2c(=O)n(Cc3ccc(C(=O)NCc4ccc5c(c4)OCO5)cc3)c(=O)c3ccccc32)c1`, which “activity change, negative = growth inhibition” value is on record?
Its value is inactive: -16.9%.

With `O=C(Nc1ncn[nH]1)c1ccc(Cl)c(S(=O)(=O)Nc2ccc(Cl)cc2)c1` as the compound, how does the “activity change, negative = growth inhibition” value read?
Its value is inactive: -4.25%.

With `O=C1CCCC2=C1Sc1ccc(Cl)cc1N2` as the compound, how does the Potency read?
The Potency was inconclusive: 2.91 µM [inhibitor, partial curve].

With `O=C1c2ccccc2C(c2nnnn2C2CCCCC2)N1CCc1ccc(O)cc1` (centres undefined) as the compound, how does the Potency read?
The Potency was inconclusive: 16.4 µM [inhibitor, single point].

With `CN(C)c1ccc(CNC(=O)C2CCN(S(=O)(=O)c3ccc4c(c3)oc(=O)n4C)CC2)cc1` as the compound, how does the Potency read?
Its Potency is “inactive and inconclusive: 29.1 µM [inhibitor, single point]”.

With `CCc1ccc(-c2cc(C)no2)cc1S(=O)(=O)NCc1ccco1` as the compound, how does the Potency read?
The Potency was inconclusive: 29.1 µM [inhibitor, single point] and inconclusive: 16.4 µM [inhibitor, partial curve].

Which “activity change, negative = growth inhibition” value does the source give for `O=C(NCCCN1CCCCC1)C1CCC(CNS(=O)(=O)c2cccc3nsnc23)CC1` (centres undefined) here?
The value was inactive: 18.2%.

Which activity change, negative = growth inhibition does the source give for `CC1=CC(C)C2(COC(=O)Nc3ccccc3)COC(C)C1C2C` (centres undefined) here?
Its activity change, negative = growth inhibition is inconclusive: -30.5% [inhibitor].

Which Potency does the source give for `Cc1ccc(C(=O)N/N=C(/CC(=O)c2cccs2)C(F)(F)F)cc1` here?
Its Potency is active: 9.2 µM.

Which “activity change, negative = growth inhibition” value does the source give for `O=S(=O)(NCCN1CCCC1)c1ccc(Br)cc1` here?
Its value is inactive: -1.2%.

For `O=C(Nc1cccc2ccccc12)N1CCN(c2ncccn2)CC1`, which Potency is on record?
The Potency was inconclusive: 29.1 µM [inhibitor, single point].

With `C=CC[C@H](CC(=O)N[C@H](CO)Cc1ccccc1)C(=O)N[C@H](COC(=O)[C@@H](CC=C)Cc1ccc(F)cc1)Cc1c[nH]c2ccccc12` as the compound, how does the “activity change, negative = growth inhibition” value read?
The value was inactive: -10.5%.

With `OC(C#CCN1CCOCC1)(c1ccccc1)C1CC1` (centres undefined) as the compound, how does the Potency read?
The Potency was inconclusive: 29.1 µM [inhibitor, single point].

For `COc1ccc(C(=O)Nc2cc([N+](=O)[O-])ccc2N2CCN(C)CC2)cc1`, which Potency is on record?
The Potency was inconclusive: 12.6 µM [inhibitor, single point].

With `CCC(Oc1ccc(F)cc1)C(=O)Nc1nc2c(s1)CCCC2` (centres undefined) as the compound, how does the Potency read?
Its Potency is active: 16.4 µM.

For `Cc1ccc(C)c(S(=O)(=O)N2CCN(c3nc(CN4CCOCC4)nc4sc(C)c(C)c34)CC2)c1`, which Potency is on record?
Its Potency is active: 18.4 µM.

Which “activity change, negative = growth inhibition” value does the source give for `O=C(CCN1CCOCC1)Nc1c(-c2ccccc2)c2cc(Br)ccc2[nH]c1=O` here?
Its value is inactive: -17.5%.

For `O=C(c1ccccc1)N1CCN(Cc2c[nH]c3ccccc23)CC1`, which Potency is on record?
The Potency was inconclusive: 18.4 µM [inhibitor, partial curve, poor fit].

Which Potency does the source give for `N#CC(C#N)=C1C(=O)N(CCN2CCOCC2)c2ccccc21` here?
Its Potency is inconclusive: 18.4 µM [inhibitor, single point].

For `COc1ccc(N2CC(C)Cn3c2nc2c3c(=O)n(Cc3ccccc3F)c(=O)n2C)c(OC)c1` (centres undefined), which activity change, negative = growth inhibition is on record?
Its activity change, negative = growth inhibition is inconclusive: -31.9% [inhibitor].

For `O=C(Nc1ccccc1)[C@@H]1CC=C[C@@H]2CCN(Cc3ccccc3)C(=O)[C@@H]21`, which Potency is on record?
Its Potency is active: 22.4 µM.

For `COc1ccc(OCC(=O)N2CCN(c3cccc(Cl)c3)CC2)cc1`, which Potency is on record?
The Potency was inconclusive: 23.1 µM [inhibitor, single point].

For `COC(=O)c1ccccc1C(=O)c1c(C)cc(C)cc1C`, which Potency is on record?
The Potency was inconclusive: 29.6 µM [inhibitor, single point].

With `COc1ccc2c(c1)C[C@]1(C)c3ccccc3C(=O)N(Cc3ccccc3)[C@H]21` as the compound, how does the Potency read?
Its Potency is active: 6.31 µM.

With `Cc1ccccc1-c1nnc(-c2cccc3ccccc23)o1` as the compound, how does the Potency read?
The Potency was inconclusive: 29.1 µM [inhibitor, single point].

Which Potency does the source give for `CCOc1ccccc1NC(=O)c1cc(-c2ccccn2)nc2ccccc12` here?
Its Potency is active: 10.3 µM.

With `O=C(c1ccccc1)N1CC(COc2ccccc2)OC(c2ccco2)O1` (centres undefined) as the compound, how does the Potency read?
Its Potency is inconclusive: 29.1 µM [inhibitor, single point].

Which “activity change, negative = growth inhibition” value does the source give for `Cn1nc(C(=O)NNC(=O)C2CSC3(C)CCC(=O)N23)c2ccccc2c1=O` (centres undefined) here?
The value was inactive: -9.29%.

Which Potency does the source give for `CN(C)c1ccc(/C=C2\SC(N3CCCCC3)=NC2=O)cc1` here?
The Potency was inconclusive: 29.1 µM [inhibitor, single point].

Which “activity change, negative = growth inhibition” value does the source give for `CCOc1ccc(S(=O)(=O)N2CCOCC2)cc1NC(=O)CSCC(=O)Nc1ccc(OC)cc1` here?
Its value is inactive: -3.07%.

With `CC(c1n[nH]c(=S)n1Cc1ccccc1)N(C)C` (centres undefined) as the compound, how does the Potency read?
The Potency was inconclusive: 29.1 µM [inhibitor, single point].

For `CCOc1cc2c(cc1/C=C/c1noc(C)c1[N+](=O)[O-])OC(C)C2` (centres undefined), which “activity change, negative = growth inhibition” value is on record?
The value was inactive: -0.0538%.

With `CCN1C(=O)[C@H]2[C@@H](c3ccc(-c4ccc(Cl)c(Cl)c4)cc3)N[C@@](C)(C(=O)OC)[C@H]2C1=O` as the compound, how does the Potency read?
Its Potency is active: 8.2 µM.

Which Potency does the source give for `CC(=O)/C(=N/Nc1cccc(C)c1)N1CCOCC1` here?
The Potency was inconclusive: 25.9 µM [inhibitor, single point].

For `COc1ccc(C(=O)N2c3nc(-c4ccco4)nn3C3(CCCCC3)[C@@H]3CCCC[C@@H]32)cc1OC`, which Potency is on record?
Its Potency is inconclusive: 20.6 µM [inhibitor, single point].

For `CCOC(=O)c1c(C)c(-c2ccccc2)n(CC(=O)NCCCN(CC)CC)c1C`, which Potency is on record?
Its Potency is inconclusive: 32.6 µM [inhibitor, single point].

Which “activity change, negative = growth inhibition” value does the source give for `Fc1ccc(NC(=S)N2CCc3ccccc3C2)c(F)c1` here?
The value was inactive: -17.6%.

With `Oc1ccccc1-c1cc(-c2ccccc2)no1` as the compound, how does the Potency read?
The Potency was inconclusive: 11.6 µM [inhibitor, partial curve].

With `CCCSC1=N/C(=C\C=C\c2ccco2)C(=O)S1` as the compound, how does the Potency read?
The Potency was active: 18.4 µM.

For `COc1ccc(CCNC(=O)CSC2=NS(=O)(=O)c3ccccc3N2)cc1OC`, which “activity change, negative = growth inhibition” value is on record?
Its value is inactive: -5.25%.

For `O=Nc1c(O)n(Cc2c(Cl)cccc2Cl)c2ccccc12`, which “activity change, negative = growth inhibition” value is on record?
Its value is inactive: -20.3%.

For `CC1(C)CC2CC(C)(CN2S(=O)(=O)c2cccc(N)c2)C1` (centres undefined), which Potency is on record?
Its Potency is inconclusive: 29.1 µM [inhibitor, single point].

With `CCn1c(SCC(=O)NCc2ccco2)nnc1-c1cccc(N(C)C)c1` as the compound, how does the Potency read?
Its Potency is inconclusive: 22.4 µM [inhibitor, single point].

For `COc1cccc(-n2c(SCc3ccccn3)nc3c(c2=O)SCC3)c1`, which Potency is on record?
The Potency was inconclusive: 13 µM [inhibitor, partial curve].

— PubChem BioAssay AID686978 (National Center for Advancing Translational Sciences (NCATS), 2013)
